Measured values as given in PubChem BioAssay AID624417 (National Center for Advancing Translational Sciences (NCATS), 2012).
In all, about 410,000 compounds went through this assay and about 6,400 (1.6%) were called active. Inconclusive results, whose numbers are uncertain, are shown with a selection of clear calls. The call rests on the fitted dose curve; in most records, active means well fitted inhibition curve with a large enough effect; inconclusive means small, poorly fitted or top-dose-only effect; inactive means no such curve, though single readings can be large or run the other way. No potency is given beside an inconclusive call; the fits are too rough. A structure can be active in one record and inactive in another.
Further: nearly all actives have a fitted effect of over 55% in size.
On the % scale 0 is the no-effect control and ±100 the full control effect; potency means the concentration at half of the fitted maximal effect; tags describe the fitted curve by direction and shape.

The molecules below were run against Glucagon-like peptide 1 receptor (Homo sapiens) (UniProt P43220) (assay: qHTS of GLP-1 Receptor Inverse Agonists (Inhibition Mode)). Conditions: HEK293 GLP-1R CRE-luciferase, luminescence, 24 h, GLP-1R form is constitutively active; activity change, negative = inhibition: at 38.3 µM (top of the series) unless noted.
Chain of UniProt P43220 (P43220 whole entry, looked up): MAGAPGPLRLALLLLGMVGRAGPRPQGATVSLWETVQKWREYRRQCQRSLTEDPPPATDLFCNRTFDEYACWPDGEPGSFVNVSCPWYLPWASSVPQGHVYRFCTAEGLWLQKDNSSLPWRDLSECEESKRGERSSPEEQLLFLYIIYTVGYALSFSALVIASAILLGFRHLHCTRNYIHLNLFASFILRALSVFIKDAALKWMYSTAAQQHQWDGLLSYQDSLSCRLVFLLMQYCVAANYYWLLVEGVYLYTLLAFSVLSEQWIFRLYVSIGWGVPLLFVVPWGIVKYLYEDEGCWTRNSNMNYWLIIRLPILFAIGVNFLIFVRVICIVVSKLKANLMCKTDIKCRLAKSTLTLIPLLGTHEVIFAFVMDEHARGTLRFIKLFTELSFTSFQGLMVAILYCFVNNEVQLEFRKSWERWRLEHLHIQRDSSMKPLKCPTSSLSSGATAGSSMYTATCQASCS
Procedure, shortened: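 Inverse agonists were sought by their lowering of basal cAMP reporter luciferase output in HEK293 cells stably carrying constitutively active human GLP-1R, after 24 h compound treatment.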
For `COCCNc1nc(NCCOC)c2sc(-c3ccccc3)cc2n1`, the Potency was “inactive”. `CCOc1ccccc1N1CCN(C(=O)c2cc[n+]([O-])cc2)CC1` was tested, and the Potency was “inactive”. `CCCCc1ccc(S(=O)(=O)Nc2ccc(C)c(NS(C)(=O)=O)c2)cc1` was tested, and the Potency was inconclusive [inhibitor, single point]. In the case of `CCCNC(=O)c1cc(Cl)c(NC(=O)C2=CSCCO2)cc1OC`, the Potency is reported as “inactive”. `COc1ccc(-c2[nH]nc(-c3ccccc3)c2-c2nc3ccccc3[nH]2)cc1` was tested, and the Potency was inconclusive [inhibitor, partial curve, poor fit]. With `Cc1ccc(CSc2nc3c(c(=O)[nH]2)C(c2ccncc2)C2=C(CCCC2=O)N3)cc1` (stereo not given) the Potency was “inactive”. `O=C(OCCc1cc2ccccc2c(=O)o1)c1ccccc1C(F)(F)F` was tested, and the Potency was inconclusive [inhibitor, single point]. For `Cc1cc(OCCCCN2C(=O)NC(C)(C)C2=O)cc(C)c1Cl`, the Potency was inconclusive [inhibitor, partial curve, poor fit]. In the case of `COc1ccc2[nH]c3c(c2c1)CCN1C(=O)C(CC(=O)NCCC2=CCCCC2)C[C@H](C(=O)N2CCOCC2)[C@@]31CCC1CCCC1` (stereo not given in full), the Potency is reported as “inactive”. `Nc1scn[n+]1Cc1cccc2cccnc12` was tested, and the Potency was “inactive”. For `CC(C)C(=O)Nc1cccc(C(=O)OCC(=O)c2ccc(Cl)cc2Cl)c1`, the Potency was “inactive”. In the case of `CSc1nc2ccc(NC(=O)c3ccccn3)cc2s1`, the Potency is reported as inconclusive [inhibitor, single point]. In the case of `CCOC(=O)c1c(-c2ccccc2)oc2ccc(OCC(O)CNCCN(C)C)cc12` (stereo not given), the Potency is reported as active: 5.01 µM. In the case of `COc1cc(NC(=O)c2cc(-c3cc(F)ccc3OC(C)C)n[nH]2)cc(OC)c1OC`, the Potency is reported as inconclusive [inhibitor, single point]. For `Cc1ncoc1C(=O)N1CCCC(C(=O)c2ccc3c4c(cccc24)CC3)C1` (stereo not given), the Potency was inconclusive [inhibitor, full curve, poor fit]. `NC(=S)N=Nc1c(O)n(CCCl)c2ccc(Cl)cc12` was tested, and the Potency was inconclusive [inhibitor, full curve, poor fit]. With `O=c1[nH]c(CN2CCN(C/C=C/c3ccccc3)CC2)nc2ccccc12` the Potency was “inactive”. `CN=c1sc2ccccc2n1CC(O)COCc1ccco1` (stereo not given) was tested, and the Potency was inconclusive [inhibitor, single point]. In the case of `O=C(CN1CCN(c2ncc(C(F)(F)F)cc2Cl)CC1)N1CCN(c2ncc(C(F)(F)F)cc2Cl)CC1`, the Potency is reported as active: 4.47 µM. In the case of `COc1ccc(C(=O)c2cc(OC)c(OC)c(OC)c2)cc1OC`, the Potency is reported as inconclusive [inhibitor, partial curve, poor fit]. With `CC1CCCN(C(=O)COc2ccc(Nc3ccccc3)cc2)C1` (stereo not given) the Potency was inconclusive [inhibitor, partial curve, poor fit]. With `CCOC(=O)C1=C(C)N(CC)C(=S)NC1c1ccccc1OC(F)F` (stereo not given) the Potency was “inactive”. With `N#C/C(=C\c1cccc(NC(=O)c2ccccc2Cl)c1)C(=O)NCCc1ccccc1` the Potency was inconclusive [inhibitor, partial curve, poor fit]. With `CCCCc1ccc(/C(C)=N/Nc2cc(N3CCOCC3)nc(C)n2)cc1` the Potency was inconclusive [inhibitor, single point]. In the case of `CCCC(O)(c1ccc(CC)cc1)C(CN1CCOCC1)c1ccccc1` (stereo not given), the activity change, negative = inhibition is reported as inconclusive: -94.4% [inhibitor]. In the case of `CC(C)c1ccc(NC2CCCN(C(=O)c3ccoc3)C2)cc1` (stereo not given), the Potency is reported as inconclusive [inhibitor, single point]. With `CNC(=O)c1cc2c(cn1)[nH]c1ccccc12` the Potency was “inactive”. For `CCOC(=O)C1=C(CN2c3ccccc3CC2C)NC(=O)NC1c1ccccc1` (stereo not given), the Potency was inconclusive [inhibitor, partial curve, poor fit]. In the case of `O=C(N/N=C/c1cc([N+](=O)[O-])ccc1O)C1CCCCC1`, the Potency is reported as inconclusive [inhibitor, partial curve, poor fit]. For `CCc1nc(NCCN2CCOCC2)c2oc3ccccc3c2n1`, the Potency was “inactive”. `Cc1cc(F)ccc1Nc1nc2ccc(Cl)cc2n2cnnc12` was tested, and the Potency was “inactive”. With `CC(=O)N1CCCC(N2CCN(c3cccc(C(F)(F)F)c3)CC2)C1` (stereo not given) the Potency was “inactive”. In the case of `Cc1cccc(NC(=S)NC(=O)/C=C/c2ccco2)n1`, the Potency is reported as “inactive”. With `CN(C)CCOc1ccc(-c2c(-c3ccccc3)sc3ccccc23)cc1` the Potency was inconclusive [inhibitor, partial curve, poor fit]. With `Cc1ccc(NC(=O)c2cc3c(s2)CCCC3)cc1S(=O)(=O)Nc1ccccc1Cl` the Potency was inconclusive [inhibitor, partial curve]. For `COc1ccccc1C(CNC(=O)c1cccc(S(=O)(=O)N2c3ccccc3CC2C)c1)N(C)C` (stereo not given), the Potency was inconclusive [inhibitor, single point]. For `COc1ccc(N(CC(=O)Nc2ccc(F)c(F)c2)S(=O)(=O)c2c(C)n[nH]c2C)cc1`, the Potency was inconclusive [inhibitor, single point]. In the case of `CN(C(=O)c1ccco1)c1nnc(C23CC4CC(CC(C4)C2)C3)s1`, the Potency is reported as inconclusive [inhibitor, single point]. `O=C(Nc1ccccc1)/C(=C/c1cccc(Br)c1)NC(=O)c1ccco1` was tested, and the Potency was “inactive”. In the case of `COc1cccc(-c2cc(C(=O)NC3CCCC3)no2)c1`, the Potency is reported as inconclusive [inhibitor, single point]. `O=S(=O)(c1ccc(NC(=S)Nc2ccc(OC(F)F)cc2)cc1)N1CCOCC1` was tested, and the Potency was inconclusive [inhibitor, partial curve, poor fit]. With `CCCS(=O)(=O)N1CCC(C(=O)NCCN2CCC(Cc3ccccc3)CC2)CC1` the Potency was “inactive”. `O=C(Nc1cc(-c2cccc(Cl)c2)nn1-c1ccccc1)c1ccccc1F` was tested, and the Potency was inconclusive [inhibitor, partial curve, poor fit]. With `CCc1ccccc1S(=O)(=O)Cc1ccc(C(=O)NCCc2ccc(Cl)cc2)o1` the Potency was inconclusive [inhibitor, partial curve, poor fit]. With `NC(Cc1ccc(Cl)cc1)c1csc(Nc2ccc(C(F)(F)F)cn2)n1` (stereo not given) the Potency was inconclusive [inhibitor, single point]. In the case of `O=C(NCCN1CCC(n2c(=O)[nH]c3ccccc32)CC1)N1c2ccccc2Sc2ccccc21`, the Potency is reported as inconclusive [inhibitor, partial curve, poor fit]. For `COc1cccc(C2C(C(=O)Nc3nc4ccccc4s3)=C(C)NC3=C2C(=O)CC(C)(C)C3)c1OC` (stereo not given), the Potency was “inactive”. For `Cc1ccc(S(=O)(=O)N(C)C)cc1NC(=S)NCCc1ccccn1`, the Potency was “inactive”. With `C=CCOC(=O)N1CCC2CC1c1cc(-c3cccc(C)c3)ccc12` (stereo not given) the Potency was inconclusive [inhibitor, single point]. With `CCc1nnc(NC(=O)c2cc(C)oc2C)s1` the Potency was “inactive”. With `CCC(C)Sc1ccc(-c2nc3cc(C)ccn3c2NC2CCCCC2)cc1` (stereo not given) the Potency was active: 10 µM. `O=C1C2C(c3ccccc3)CC=CC2[C@H](c2cccc([N+](=O)[O-])c2)N1Cc1ccccc1` (stereo not given in full) was tested, and the Potency was active: 10 µM. For `COc1ccc(CNC(=O)c2c(O)c3cccc4c3n(c2=O)CCC4)cc1`, the Potency was inconclusive [inhibitor, single point]. `Cc1ccc(/C=C/C(=O)N2CCN(c3ncccn3)CC2)o1` was tested, and the Potency was “inactive”. `Cc1ccsc1C(=O)OCc1csc(-c2ccccc2)n1` was tested, and the Potency was inconclusive [inhibitor, single point]. `Cc1ccc(SCc2c(C#N)c3ccccc3n2C)cc1` was tested, and the Potency was inconclusive [inhibitor, single point]. `COc1ccc(Cl)cc1-c1n[nH]c(=S)n1Cc1ccccc1` was tested, and the Potency was inconclusive [inhibitor, full curve]. In the case of `O=C1CCCN1CCCNC(=S)Nc1ccc(Nc2ccccc2)cc1`, the Potency is reported as “inactive”. For `CC(=O)c1ccc(NC(=O)c2sc(-n3nc(C)c(CCC(C)C)c3C)nc2C)cc1`, the Potency was “inactive”. With `COc1ccc(N2CCN(C(CNC(=O)c3cccs3)c3ccco3)CC2)cc1` (stereo not given) the Potency was inconclusive [inhibitor, partial curve]. In the case of `C=CC[C@@H](CC(=O)N(CCO)Cc1ccccc1)C(=O)N[C@@H](COC(=O)[C@@H](CC=C)Cc1ccc(F)cc1)Cc1ccccc1`, the Potency is reported as inconclusive [inhibitor, partial curve, poor fit]. With `O=C(c1ccc(Cn2cc(Cl)c([N+](=O)[O-])n2)cc1)N1CCN(Cc2ccccc2)CC1` the Potency was inconclusive [inhibitor, partial curve, poor fit]. With `Cc1ccc(NC(=O)c2c(F)cccc2Cl)cc1S(=O)(=O)N1CCOCC1` the Potency was “inactive”. For `Cc1ccc2c(Sc3ccccc3)c(C(=O)NCc3ccccc3F)[nH]c2c1`, the Potency was “inactive”. With `COc1ccc(Cc2c(-c3ccccc3)nc3c4ccccc4ccn23)c(C)c1` the Potency was inconclusive [inhibitor, single point]. In the case of `CCOc1cc(Cn2c(-c3ccc(O)c(OCC)c3)nc3ccccc32)ccc1O`, the Potency is reported as inconclusive [inhibitor, single point]. `C=CS(=O)c1sc(Cl)c(N2CCOCC2)c1[N+](=O)[O-]` (stereo not given) was tested, and the Potency was inconclusive [inhibitor, single point]. In the case of `COc1ccc(-n2c(-c3ccccc3F)nc3c(cnn3-c3ccc(C)cc3)c2=O)cc1`, the Potency is reported as active: 7.08 µM. For `CCOc1ccc(CN2CCCC(CO)(Cc3ccc(F)cc3)C2)cc1` (stereo not given), the Potency was inconclusive [inhibitor, single point]. `CCN(CC)S(=O)(=O)c1ccc2nc(NC(=O)c3cccs3)sc2c1` was tested, and the Potency was inconclusive [inhibitor, partial curve].
